Assay results published in the supplement of paper PMC3334620.
Whole data set: some 33,000 sequences, median “E-score (-0.5 to 0.5)” near -0.036, cut for the highest 2% near 0.37. This is one part of the list.

target: T1, Yer064c (UniProt P40041); experiment: PBM E-score (8-mer binding enrichment) (E-score (-0.5 to 0.5)); higher = stronger / more preferred TF binding; most listed sequences are background and not binding sites; details: protein concentration: 200 nM; construct: GST-full length
T1 sequence: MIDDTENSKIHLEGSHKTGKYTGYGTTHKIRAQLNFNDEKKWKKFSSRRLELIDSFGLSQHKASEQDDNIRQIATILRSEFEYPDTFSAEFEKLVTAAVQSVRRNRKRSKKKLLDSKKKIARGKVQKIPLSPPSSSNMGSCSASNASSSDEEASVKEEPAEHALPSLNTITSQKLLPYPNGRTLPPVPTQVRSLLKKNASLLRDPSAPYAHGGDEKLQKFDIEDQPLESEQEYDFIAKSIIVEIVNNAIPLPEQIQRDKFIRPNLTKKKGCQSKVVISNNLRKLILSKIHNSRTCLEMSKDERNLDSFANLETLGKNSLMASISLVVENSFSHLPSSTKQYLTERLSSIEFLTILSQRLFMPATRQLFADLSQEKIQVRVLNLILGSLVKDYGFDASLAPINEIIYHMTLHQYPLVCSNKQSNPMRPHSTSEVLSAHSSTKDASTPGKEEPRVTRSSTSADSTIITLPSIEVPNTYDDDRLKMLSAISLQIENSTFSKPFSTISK
Outline: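 Yeast transcription factors carrying a GST tag, as full-length proteins or DNA-binding domains, were produced by PURExpress in vitro transcription/translation. About 100-200 nM protein was applied to universal all-10-mer Agilent arrays, double-stranded by primer extension on fresh or once-stripped slides. Bound protein was detected with fluorescent anti-GST, and scans were normalised with masliner. The Universal PBM Analysis Suite gave each ungapped eight-base word, pooled with its reverse complement, an E-score, a modified Wilcoxon-Mann-Whitney statistic.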

| Sequence | PBM E-score |
| --- | --- |
| CCCTTAGC | -0.247 |
| AGGATCTA | -0.0917 |
| ATTACGGA | 0.063 |
| GGAAAAGA | 0.0203 |
| GGCCGCAC | -0.22 |
| AATCCCGT | -0.00352 |
| GATGTAAA | -0.0141 |
| TCGTAACA | 0.0775 |
| GCCGCGCA | -0.201 |
| ACTCAGGA | 0.26 |
| AAAACGTG | -0.00995 |
| GCGGTAAC | 0.0239 |
| AAGATCGG | -0.188 |
| CTCCTTGC | -0.0729 |
| GGCCGAAA | 0.104 |
| AACGAAGA | 0.127 |
| AAACGGTC | -0.191 |
| CCTATGGC | -0.149 |
| AGAATGGG | -0.117 |
| GGCAGTGA | 0.0347 |
| GCGTACGC | -0.144 |
| ACTTTCGA | 0.113 |
| AAAAGTTA | 0.0954 |
| AATCGGCA | 0.00862 |
| CAAAAGAG | 0.0455 |

| Sequence | PBM E-score |
| --- | --- |
| CTCACTGA | 0.202 |
| GGGCAGAC | -0.227 |
| CACCGGCC | -0.113 |
| CGATGGAC | -0.0384 |
| AATTCAAC | -0.0608 |
| ACTATCCG | 0.182 |
| GACTACGC | 0.391 |
| CTCCGGAA | -0.109 |
| ATATTTGG | 0.036 |
| CCTACAGG | -0.104 |
| CCAGCCCG | -0.178 |
| TCTTTCCA | -0.137 |
| ATAACAAG | 0.00051 |
| AAAGGTAA | 0.112 |
| CTACCTAC | -0.0346 |
| CACAGGTA | -0.129 |
| GGGGTCAC | 0.0345 |
| AACTACTT | 0.147 |
| CAAGCGGG | -0.149 |
| CAACGAAC | 0.0998 |
| AGAGGAGA | -0.00359 |
| AGAAATTA | 0.22 |
| CTGCCGGC | -0.0737 |
| GTGGAACA | -0.124 |
| GAAACAGA | -0.142 |

| Sequence | PBM E-score |
| --- | --- |
| TACCCACA | 0.206 |
| TCTCCCCA | -0.153 |
| CAATAACC | 0.183 |
| GGCCGGTA | -0.113 |
| TAAGGGTA | 0.0278 |
| ATGCCGGA | -0.175 |
| CCTTATAG | 0.0275 |
| ACCCTTCA | -0.15 |
| ACTAAGCC | 0.235 |
| CCATATCG | 0.212 |
| TAGATTGA | 0.0941 |
| ATGCAATC | -0.0742 |
| AAGGCGCG | -0.328 |
| ATTCCAAT | -0.025 |
| AAACCCGC | -0.259 |
| CTTCTTTA | -0.12 |
| CACACGAA | 0.0255 |
| CGTATGAA | 0.0601 |
| ATGGACTA | 0.292 |
| ACCAGAAG | -0.0698 |
| ACAGACTA | 0.0746 |
| ATACCTTC | -0.283 |
| TGGTTACA | 0.118 |
| ACCTTCAG | -0.0407 |
| GTAAATTA | -0.0771 |

| Sequence | PBM E-score |
| --- | --- |
| CAGGCCGC | -0.0586 |
| CCGGCTCA | -0.114 |
| ATGCCGAG | -0.0321 |
| ATTACGCC | 0.133 |
| ATGGCTTC | 0.156 |
| ACTGAGAC | 0.338 |
| CTGCGAGC | 0.112 |
| AAATATCC | 0.0261 |
| ACGCCGAC | 0.163 |
| TCGGTTAA | 0.182 |
| CGGGTGGA | -0.183 |
| AACCGAAT | -0.0662 |
| ATCTGTCA | -0.051 |
| GCAAGTAA | -0.0247 |
| CTCGATTC | 0.0969 |
| GTGTGGCA | -0.261 |
| ATCTTCAG | 0.188 |
| ATTTCCGG | -0.0322 |
| AAATTGGT | -0.11 |
| ACGTGGGC | -0.165 |
| GCAGGCTA | -0.118 |
| CTGCCGGA | 0.0297 |
| CACCTTGG | -0.142 |
| AGTCAAAA | 0.408 |
| CTTCAGGA | 0.00919 |

| Sequence | PBM E-score |
| --- | --- |
| CCAGCATA | -0.151 |
| ACACTTCA | -0.0543 |
| CCTGATAG | -0.2 |
| ATCGGTCC | -0.188 |
| GTCTCGGA | -0.0996 |
| AGGCTTGC | -0.191 |
| AGAGCTCG | -0.222 |
| TATGCACA | 0.133 |
| CCCCCCTA | -0.277 |
| CGCATATA | -0.182 |
| GGCGCGTA | -0.299 |
| GATATTCC | -0.217 |
| TCCTAGGA | -0.336 |
| ACTTTACC | 0.126 |
| TGGGATAA | -0.199 |
| GAGTCGAA | 0.359 |
| ATGATTCC | 0.456 |
| AGATCAGG | -0.14 |
| GTTCTATA | -0.0345 |
| CTTGACCC | -0.164 |
| CTTCATGC | -0.12 |
| AGCGTCAC | -0.182 |
| AATGACAT | -0.14 |
| ACCTCAAG | 0.00326 |
| CATTGAAC | 0.172 |

| Sequence | PBM E-score |
| --- | --- |
| TAAAGTAA | 0.049 |
| AAGAGCAA | -0.0665 |
| ACATCGGT | -0.0199 |
| GTGCGCAC | -0.0104 |
| CGCTAAAA | -0.0446 |
| CCCATAGA | -0.0505 |
| ACCGCCAG | -0.117 |
| AAGTGACG | 0.0587 |
| GAAAGTAA | 0.098 |
| TCGTGACA | 0.0154 |
| CCCCCGGG | -0.228 |
| AGCACGGG | -0.212 |
| CATACCTA | -0.085 |
| CAATAGAG | -0.0353 |
| ACGTGCCG | -0.238 |
| AGAAGGTC | -0.0538 |
| GGAGCAGA | -0.176 |
| ACCGAAGG | -0.0653 |
| AGAAGTAT | 0.0717 |
| CGCGTAGA | 0.0291 |
| GCCGAGGA | -0.172 |
| GAGGTGGA | -0.192 |
| TACTAAGA | 0.113 |
| AAGACTGG | 0.1 |
| CGACAGAG | -0.0334 |

| Sequence | PBM E-score |
| --- | --- |
| CGAGTCCG | 0.272 |
| TGGAGCCA | -0.0649 |
| CAGGGGTC | -0.022 |
| CCTCGTCG | -0.179 |
| AGATAGGC | -0.147 |
| ACTGCAGA | 0.128 |
| AACTCGGC | 0.00137 |
| GGGTCCAC | -0.116 |
| CTAGTTAA | 0.192 |
| CTGCGGAC | -0.0565 |
| ACCACAGC | -0.176 |
| CTGGAAAA | 0.0804 |
| CGCTAGTC | 0.29 |
| GGCAGAAA | 0.048 |
| GTCCTCAC | 0.0812 |
| ATAGGCCC | -0.281 |
| AAGCAATA | 0.0273 |
| AACGGCTA | -0.0485 |
| CTCGTCTA | 0.0806 |
| AAGTACAC | -0.00131 |
| CGCACATA | -0.0944 |
| AGAGAGCT | -0.231 |
| CCAGGCCG | 0.0201 |
| CAAAAGGA | -0.124 |
| AGTTGGGG | -0.127 |

| Sequence | PBM E-score |
| --- | --- |
| ATTCAAGA | 0.135 |
| GACGAACA | -0.0946 |
| ATGGGATA | -0.116 |
| GAAAACCA | -0.0862 |
| ATCGCATA | 0.00157 |
| ATCCAAAT | 0.0803 |
| TGACTCAA | 0.492 |
| ATTCCCAA | -0.00741 |
| CCCTCTTC | -0.303 |
| GCGGGCCC | -0.194 |
| AGATTCCG | -0.051 |
| GGTCCTTA | 0.0582 |
| ACTGCTCA | 0.132 |
| ACATTAAC | 0.128 |
| AGCGTCCT | -0.187 |
| CTCCTTAC | -0.231 |
| ACGAGGAT | -0.194 |
| AGTTCCGC | -0.0574 |
| GTTTTTCA | 0.0278 |
| AGTTATAA | 0.0907 |
| ATGTCGTG | -0.101 |
| CGTACAAG | 0.0185 |
| CGCATGTA | -0.125 |
| CTAATTCA | 0.0344 |
| ACTGTTAC | -0.0683 |

| Sequence | PBM E-score |
| --- | --- |
| AAGCTCGA | -0.0636 |
| CAGTGAAA | 0.0766 |
| ATGTCTGA | 0.139 |
| ACAGCCGG | -0.0963 |
| ACCAAGCA | -0.0624 |
| CATATTAA | 0.156 |
| CCATTTTC | -0.0323 |
| ACCGCCTA | -0.158 |
| ACAGCACC | -0.172 |
| AGTTATGC | 0.0497 |
| GGTTTGGA | 0.00152 |
| GTGAGGGA | -0.241 |
| TAAGCACA | -0.0264 |
| GTCCTCAA | 0.159 |
| AATTCTGA | 0.153 |
| CGGGTCCC | -0.251 |
| ATGTGCTC | 0.125 |
| ATCCCATG | -0.105 |
| CAACGTCG | -0.00846 |
